The whole screen tested about 39,000 compounds, of which about 220 (0.56%) showed activity. The list shows a part of the results.
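Note: static incubation at 37 °C against the wild-type strain, values averaged over two biological replicates.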

The test system of this experiment is Escherichia coli K-12 BW25113. Nature of the experiment: relative growth (OD600 normalised to plate interquartile mean) (fraction); higher = less growth inhibition, active = 0.2 or less. Particulars: 50 µM; LB; incubation time: overnight (16-24 h).
`Cc1noc(C)c1S(=O)(=O)Nc1ccc2c(c1)C(=O)N([C@H](C)CO)C[C@@H](C)[C@H](CN(C)C(=O)Nc1ccccc1)OCCCC[C@@H](C)O2`: the relative growth is inactive: 1.05.

With `C[C@H](CO)N1C[C@H](C)[C@@H](CN(C)C(=O)NC2CCCCC2)Oc2c(NC(=O)C3CCOCC3)cccc2C1=O`, the relative growth was inactive: 1.02.

Take `C[C@@H]1CN([C@H](C)CO)C(=O)c2cc(NC(=O)Cn3cnnn3)ccc2O[C@H]1CN(C)C(=O)NC1CCCCC1`: the relative growth is inactive: 0.992.

With `Cc1noc(C)c1S(=O)(=O)Nc1ccc2c(c1)CC(=O)N([C@@H](C)CO)C[C@@H](C)[C@H](CN(C)Cc1ccc(-c3ccccc3)cc1)O2`, the relative growth was inactive: 1.03.

Turning to `CCC(=O)N1C[C@]2(C1)CN([C@H](CO)c1c2c2ccc(cc2n1C)OC)S(=O)(=O)C`, the relative growth was inactive: 0.932.

For `C=C[C@]1(C)C=C2CC[C@H]3C(C)(C)[C@H](O[C@@H]4O[C@@H](CO)[C@H](O)[C@H]4O)CC[C@@]3(C)[C@H]2C[C@@H]1O[C@@H]1O[C@H](CO)[C@@H](OC)[C@H](O)[C@H]1O`, the relative growth was inactive: 0.994.

`C[C@@H]1CN([C@@H](C)CO)C(=O)c2cc(NC(=O)c3ccccc3)ccc2O[C@@H](C)CCCCO[C@H]1CN(C)Cc1ccccc1`: the relative growth was inactive: 0.945.

Regarding `Cc1noc(C)c1NC(=O)Nc1ccc2c(c1)CC(=O)N([C@@H](C)CO)C[C@H](C)[C@@H](CN(C)Cc1ccc(Cl)c(Cl)c1)O2`, the relative growth is inactive: 0.986.

With `CCCCC[C@H]1C[C@H]1C[C@H]1C[C@H]1CCCCCCCC(=O)O`, the relative growth is inactive: 0.927.

For the molecule `CCCC(=O)Nc1ccc2c(c1)OC[C@H](C)N(S(=O)(=O)c1cn(C)cn1)C[C@@H](C)[C@@H](OC)CN(C)C2=O`, the relative growth is inactive: 0.985.

For the molecule `Cc1ccc(S(=O)(=O)Nc2cccc3c2O[C@@H](CN(C)Cc2ccc(C(F)(F)F)cc2)[C@@H](C)CN([C@@H](C)CO)C3=O)cc1`, the relative growth is inactive: 0.986.

For the molecule `COc1ccc(CN(C)C[C@H]2OCCCC[C@H](C)Oc3ccc(NS(=O)(=O)c4ccc(C)cc4)cc3C(=O)N([C@H](C)CO)C[C@H]2C)cc1`, the relative growth was inactive: 1.01.

In the case of `C[C@@H]1CCCCO[C@H](CN(C)S(=O)(=O)c2ccccc2)[C@H](C)CN([C@@H](C)CO)C(=O)c2cc(NC(=O)C3CCCCC3)ccc2O1`, the relative growth is inactive: 1.02.

Consider `C[C@@H]1CN([C@H](C)CO)C(=O)c2cc(NC(=O)c3ccccc3)ccc2O[C@@H](C)CCCCO[C@@H]1CN(C)S(=O)(=O)c1cccs1`, for which the relative growth was inactive: 1.03.

For `C[C@@H]1CCCCO[C@H](CN(C)S(=O)(=O)c2ccc(Cl)cc2)[C@@H](C)CN([C@@H](C)CO)C(=O)c2cc(NC(=O)Nc3ccc(F)cc3)ccc2O1`, the relative growth was inactive: 1.05.

As to `CC(=O)N1CCN(C(=O)Cc2ccc(S(C)(=O)=O)cc2)C[C@@H](O)C1`, the relative growth was inactive: 0.97.

With `CCCC#Cc1ccc2c(c1)O[C@@H](CN(C)C(=O)c1cnccn1)[C@@H](C)CN([C@@H](C)CO)S2(=O)=O`, the relative growth is inactive: 1.02.

As for `COc1ccc(CN(C)C[C@@H]2Oc3ccc(NC(=O)CCN4CCOCC4)cc3C(=O)N([C@@H](C)CO)C[C@@H]2C)cc1`, the relative growth was inactive: 1.

In the case of `COc1cccn(CC(=O)NN)c1=O`, the relative growth was inactive: 1.01.

Consider `Cc1ccc(S(=O)(=O)N2C[C@@H](O)COC[C@@H]3O[C@H](CC(=O)NCCCN(C)C)CC[C@H]32)cc1`, for which the relative growth is inactive: 1.01.

For the molecule `COc1ccc(S(=O)(=O)Nc2ccc3c(c2)C(=O)N([C@H](C)CO)C[C@@H](C)[C@@H](CN(C)S(=O)(=O)c2ccc(OC)cc2)O3)cc1`, the relative growth is inactive: 1.

Take `N=C(N)NS(=O)(=O)c1ccc(N)cc1`: the relative growth was inactive: 0.867.

As to `COc1ccc2c3c([nH]c2c1)[C@@H](CO)N(CC1CCCCC1)C[C@]13CN(C1)C(=O)Nc1cccc(c1)F`, the relative growth is inactive: 1.03.

`CC(C)NC(=O)Nc1ccc2c(c1)C(=O)N([C@@H](C)CO)C[C@@H](C)[C@@H](CN(C)Cc1ccc(C(=O)O)cc1)O2`: the relative growth is inactive: 0.911.

As to `CO[C@@H]1CN(C)C(=O)c2ccc(NS(=O)(=O)CC(F)(F)F)cc2OC[C@@H](C)N(C(=O)NC(C)C)C[C@H]1C`, the relative growth was inactive: 1.01.

Turning to `CC(C)(C)C(=O)C[n+]1cccc(C(N)=O)c1`, the relative growth is inactive: 1.02.

`Cc1cc(C(=O)Nc2cccc3c2O[C@H](CN(C)S(=O)(=O)c2ccccc2)[C@@H](C)CN([C@@H](C)CO)C3=O)n(C)n1`: the relative growth was inactive: 0.981.

For `CCCNc1ncnc(N)c1[N+](=O)[O-]`, the relative growth is inactive: 0.973.

As for `CCOC(=O)N(C)C[C@@H]1OCc2cn(nn2)CCCC(=O)N([C@H](C)CO)C[C@H]1C`, the relative growth is inactive: 1.02.

In the case of `CN1C[C@@H](O)COC[C@H]2O[C@H](CC(=O)N3CCN(c4ccccc4)CC3)CC[C@@H]21`, the relative growth was inactive: 0.994.

For `COc1ccc(CN(C)C[C@@H]2OCCCC[C@H](C)Oc3ccc(NC(=O)c4ccncc4)cc3C(=O)N([C@H](C)CO)C[C@@H]2C)cc1`, the relative growth is inactive: 1.

For `C[C@H]1CCCCO[C@@H](CN(C)C(=O)Nc2ccccc2)[C@@H](C)CN([C@@H](C)CO)C(=O)c2cc(NC(=O)Nc3ccccc3)ccc2O1`, the relative growth is inactive: 1.02.

Consider `Cc1noc(C)c1NC(=O)Nc1cccc2c1O[C@@H](CN(C)C(=O)NC(C)C)[C@@H](C)CN([C@H](C)CO)C2=O`, for which the relative growth is inactive: 1.

As for `C[C@@H]1CN([C@@H](C)CO)C(=O)c2cc(NC(=O)CCN3CCOCC3)ccc2O[C@H]1CN(C)C(=O)Nc1ccc2c(c1)OCO2`, the relative growth was inactive: 0.974.

With `CCC(=O)Nc1ccc2ccccc2c1`, the relative growth is inactive: 0.842.

Turning to `N#Cc1ccc(N2CCCNCC2)nc1`, the relative growth was inactive: 0.952.

With `O=C(C[C@@H]1CC[C@@H]2[C@H](COC[C@H](O)CN2S(=O)(=O)c2ccccc2)O1)N1CCc2ccccc2C1`, the relative growth was inactive: 1.01.

In the case of `C[C@H](CO)N1C[C@H](C)[C@H](CN(C)C(=O)Nc2ccc3c(c2)OCO3)Oc2c(NC(=O)C3CC3)cccc2C1=O`, the relative growth was inactive: 0.995.

`Cc1cncc2cccc(S(=O)(=O)NCCN(C/C=C/c3ccc(Br)cc3)C/C=C/c3ccc(Br)cc3)c12`: the relative growth was inactive: 0.98.

Turning to `COc1ccc(S(=O)(=O)N(C)C[C@@H]2Oc3ccc(NC(=O)c4ccncc4)cc3CC(=O)N([C@@H](C)CO)C[C@@H]2C)cc1`, the relative growth is inactive: 0.928.

On to `COc1ccc(NC(=O)Nc2cccc3c2O[C@@H](CN(C)Cc2ccc(C(=O)Nc4ccccc4N)cc2)[C@H](C)CN([C@H](C)CO)C3=O)cc1`, for which the relative growth is inactive: 1.01.

As to `COc1ccc(NC(=O)Nc2cccc3c2O[C@H](CN(C)Cc2ccc(C(F)(F)F)cc2)[C@H](C)CN([C@@H](C)CO)C3=O)cc1`, the relative growth was inactive: 0.992.

For `O=C(C[C@H]1CC[C@H]2[C@@H](COC[C@H](O)CN2C(=O)Nc2ccc(C(F)(F)F)cc2)O1)NCc1ccncn1`, the relative growth was inactive: 0.983.

With `COc1ccc(-c2cc(=O)c3c(O)cc(O[C@@H]4O[C@H](CO[C@H]5O[C@H](C)[C@@H](O)[C@H](O)[C@@H]5O)[C@@H](O)[C@H](O)[C@H]4O)cc3o2)cc1O`, the relative growth is inactive: 1.03.

As to `C[C@@H]1CN([C@@H](C)CO)C(=O)c2cc(NC(=O)Nc3ccc(C(F)(F)F)cc3)ccc2O[C@@H]1CN(C)Cc1ccc(C(=O)O)cc1`, the relative growth is inactive: 0.973.

Consider `C[C@H]1CN([C@@H](C)CO)C(=O)Cc2cc(NC(=O)Cc3cn(C)c4ccccc34)ccc2O[C@H]1CN(C)S(=O)(=O)c1cn(C)cn1`, for which the relative growth was inactive: 1.01.

Turning to `COc1ccc(NC(=O)Nc2ccc3c(c2)CC(=O)N([C@@H](C)CO)C[C@@H](C)[C@H](CN(C)S(C)(=O)=O)O3)cc1`, the relative growth was inactive: 1.02.

As to `Cc1noc(C)c1NC(=O)Nc1ccc2c(c1)C(=O)N([C@H](C)CO)C[C@H](C)[C@@H](CN(C)Cc1ccccc1)OCCCC[C@H](C)O2`, the relative growth was inactive: 0.972.

In the case of `COc1ccc(CN(C)C[C@@H]2Oc3ccc(NS(=O)(=O)c4cn(C)cn4)cc3C(=O)N([C@@H](C)CO)C[C@H]2C)cc1`, the relative growth is inactive: 0.999.

Consider `C[C@@H]1CN([C@@H](C)CO)C(=O)c2cc(N(C)C)ccc2O[C@@H](C)CCCCO[C@@H]1CN(C)S(=O)(=O)c1cn(C)cn1`, for which the relative growth is inactive: 1.03.

In the case of `CO[C@H]1CN(C)C(=O)c2cc(NC(=O)CC(F)(F)F)ccc2OC[C@H](C)N(C(=O)C2CCOCC2)C[C@@H]1C`, the relative growth is inactive: 1.01.

In the case of `O=C(CCCCCNC(=O)OCc1ccc(CO[C@@H]2C[C@H](c3ccc(Br)cc3)C=C(C(=O)N3CCN(Cc4ccc5c(c4)OCO5)CC3)O2)cc1)NO`, the relative growth was inactive: 1.02.

For `COc1ccc2c3c([nH]c2c1)[C@H](CO)N(CC1CCCCC1)C[C@]13CCN(CC1)C(=O)Nc1cccc(c1)F`, the relative growth is inactive: 1.03.

Take `COc1ccc(S(=O)(=O)N(C)C[C@H]2Oc3ccc(NS(=O)(=O)c4c(C)noc4C)cc3C(=O)N([C@@H](C)CO)C[C@@H]2C)cc1`: the relative growth was inactive: 1.01.

For `CN1CCN(C(=O)[C@H]2[C@H](CO)[C@H]3Cn4c(ccc(C5=CCCCC5)c4=O)[C@@H]2N3S(C)(=O)=O)CC1`, the relative growth is inactive: 0.963.

In the case of `COc1ccc(CN(C)C[C@@H]2OCCCC[C@H](C)Oc3ccc(NC(=O)Nc4ccccc4)cc3C(=O)N([C@@H](C)CO)C[C@@H]2C)cc1`, the relative growth was inactive: 0.95.

Regarding `O=C(C[C@@H]1CC[C@H]2[C@@H](COC[C@@H](O)CN2S(=O)(=O)c2ccccc2F)O1)NCc1ccccc1F`, the relative growth was inactive: 0.976.

Consider `C[C@@H]1CN([C@@H](C)CO)S(=O)(=O)c2ccc(C#C[C@@H](C)O)cc2O[C@@H]1CN(C)C(=O)CN(C)C`, for which the relative growth is inactive: 1.02.

As for `O=C1[C@@H]2[C@@H](C(=O)N1CCO)[C@@H]1C=C[C@@H]2C1`, the relative growth is inactive: 0.972.

`C[C@H](CO)N1C[C@H](C)[C@H](CN(C)C(=O)c2cc(Cl)cc(Cl)c2)OCc2ccccc2-c2c(n(C)c3ccccc23)C1=O`: the relative growth was inactive: 1.01.

The values above are taken from the supplement of paper PMC9446081.
